Laboratory results published in the supplement of paper PMC11741623.
This is one part of the list. Interaction screen of human proteins with wild-type SARS-CoV-2 proteins by split-DHFR complementation in yeast, 1 µg/mL methotrexate. Value = fitness of the pair (three or more lineages) minus that of the viral protein without a human partner, on a scale set by negative (0) and fused positive (1) controls, mean of up to three cultures; higher = more likely to interact. Active = false discovery rate below 0.05 (one-sided t-test) in at least one culture. Nearly all pairs are not hits, and differences among them are mostly noise (correlation between cultures about 0.3); most hits were seen in one culture only. Human sequences are the Swiss-Prot entries looked up by gene name; the clone may be another isoform. NSP2 values were corrected by the authors for a growth advantage. Listed are human proteins with a hit and a random twelfth of the others.

Experiments:
Test in all cases: yeast fitness gain over the viral ORF with no human partner (scaled fitness); higher = more likely to interact
SARS-CoV-2 M = molecular target: SARS-CoV-2 M
Procedure: (§1)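 Split mouse DHFR complementation in pooled diploid yeast: human ORFeome clones carry one fragment and viral ORFs the other; barcoded lineages compete in 1 µg/mL methotrexate and fitness is read by barcode sequencing in up to three cultures.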

SARS-CoV-2 NSP1 = molecular target: SARS-CoV-2 NSP1
Procedure: as §1

SARS-CoV-2 NSP10 = molecular target: SARS-CoV-2 NSP10
Procedure: as §1

SARS-CoV-2 NSP12 = molecular target: SARS-CoV-2 NSP12
Procedure: as §1

SARS-CoV-2 NSP13 = molecular target: SARS-CoV-2 NSP13
Procedure: as §1

SARS-CoV-2 NSP2 = molecular target: SARS-CoV-2 NSP2
Procedure: as §1

SARS-CoV-2 NSP4 = molecular target: SARS-CoV-2 NSP4
Procedure: as §1

SARS-CoV-2 NSP5 = molecular target: SARS-CoV-2 NSP5
Procedure: as §1

SARS-CoV-2 NSP6 = molecular target: SARS-CoV-2 NSP6
Procedure: as §1

SARS-CoV-2 NSP7 = molecular target: SARS-CoV-2 NSP7
Procedure: as §1

SARS-CoV-2 NSP8 = molecular target: SARS-CoV-2 NSP8
Procedure: as §1

SARS-CoV-2 ORF10 = molecular target: SARS-CoV-2 ORF10
Procedure: as §1

SARS-CoV-2 ORF3A = molecular target: SARS-CoV-2 ORF3A
Procedure: as §1

SARS-CoV-2 ORF3B = molecular target: SARS-CoV-2 ORF3B
Procedure: as §1

SARS-CoV-2 ORF6 = molecular target: SARS-CoV-2 ORF6
Procedure: as §1

SARS-CoV-2 ORF7A = molecular target: SARS-CoV-2 ORF7A
Procedure: as §1

SARS-CoV-2 ORF7B = molecular target: SARS-CoV-2 ORF7B
Procedure: as §1

SARS-CoV-2 ORF8 = molecular target: SARS-CoV-2 ORF8
Procedure: as §1

SARS-CoV-2 ORF9B = molecular target: SARS-CoV-2 ORF9B
Procedure: as §1

[1] = molecular target: SARS-CoV-2 ORF9Bwu (the 73-codon ORF)
Procedure: as §1

SARS-CoV-2 S = molecular target: SARS-CoV-2 S
Procedure: as §1

SARS-CoV-2 NSP14 = molecular target: SARS-CoV-2 NSP14
Procedure: as §1

SARS-CoV-2 NSP9 = molecular target: SARS-CoV-2 NSP9
Procedure: as §1

SARS-CoV-2 NSP16 = molecular target: SARS-CoV-2 NSP16
Procedure: as §1

SARS-CoV-2 N = molecular target: SARS-CoV-2 N
Procedure: as §1

Binder	yeast fitness gain (SARS-CoV-2 M)	yeast fitness gain (SARS-CoV-2 NSP1)	yeast fitness gain (SARS-CoV-2 NSP10)	yeast fitness gain (SARS-CoV-2 NSP12)	yeast fitness gain (SARS-CoV-2 NSP13)	yeast fitness gain (SARS-CoV-2 NSP2)	yeast fitness gain (SARS-CoV-2 NSP4)	yeast fitness gain (SARS-CoV-2 NSP5)	yeast fitness gain (SARS-CoV-2 NSP6)	yeast fitness gain (SARS-CoV-2 NSP7)	yeast fitness gain (SARS-CoV-2 NSP8)	yeast fitness gain (SARS-CoV-2 ORF10)	yeast fitness gain (SARS-CoV-2 ORF3A)	yeast fitness gain (SARS-CoV-2 ORF3B)	yeast fitness gain (SARS-CoV-2 ORF6)	yeast fitness gain (SARS-CoV-2 ORF7A)	yeast fitness gain (SARS-CoV-2 ORF7B)	yeast fitness gain (SARS-CoV-2 ORF8)	yeast fitness gain (SARS-CoV-2 ORF9B)	yeast fitness gain [1]	yeast fitness gain (SARS-CoV-2 S)	yeast fitness gain (SARS-CoV-2 NSP14)	yeast fitness gain (SARS-CoV-2 NSP9)	yeast fitness gain (SARS-CoV-2 NSP16)	yeast fitness gain (SARS-CoV-2 N)
ABHD14A, Q9BUJ0 (protein) MVGALCGCWFRLGGARPLIPLGPTVVQTSMSRSQVALLGLSLLLMLLLYVGLPGPPEQTSCLWGDPNVTVLAGLTPGNSPIFYREVLPLNQAHRVEVVLLHGKAFNSHTWEQLGTLQLLSQRGYRAVALDLPGFGNSAPSKEASTEAGRAALLERALRDLEVQNAVLVSPSLSGHYALPFLMRGHHQLHGFVPIAPTSTQNYTQEQFWAVKTPTLILYGELDHILARESLRQLRHLPNHSVVKLRNAGHACYLHKPQDFHLVLLAFLDHLP	inactive: 0.0302	inactive: 0.131	inactive: -0.0077	inactive: 0.0267	inactive: -0.0294	inactive: -0.163	inactive: -0.0447	inactive: -0.0304	inactive: 0.0237	inactive: 0.073	inactive: 0.00829	inactive: -0.115	inactive: 0.0241	inactive: 0.0305	inactive: 0.0234	inactive: -0.0206	inactive: -0.0951	inactive: -0.0453	inactive: -0.0127	inactive: -0.0748	inactive: -0.048	–	–	–	–
MESP2, Q0VG99 (protein) MAQSPPPQSLLGHDHWIFAQGWGWAGHWDSTSPASSSDSSGSCPCDGARGLPQPQPPSCSSRAAEAAATTPRRARTGPAGGQRQSASEREKLRMRTLARALHELRRFLPPSLAPAGQSLTKIETLRLAIRYIGHLSAVLGLSEESLQCRRRQRGDAGSPWGCPLCPDRGPAEAQTQAEGQGQGQGQGQGQGQGQGQGQGQGQGQGRRPGLVSAVLAEASWGSPSACPGAQAAPERLGRGVHDTDPWATPPYCPKIQSPPYSSQGTTSDASLWTPPQGCPWTQSSPEPRNPPVPWTAAPATLELAAVYQGLSVSPEPCLSLGAPSLLPHPSCQRLQPQTPGRCWSHSAEVVPNSEDQGPGAAFQLSEASPPQSSGLRFSGCPELWQEDLEGARLGIFY	inactive: -0.00373	–	inactive: 0.566	inactive: 0.285	active: 0.809	inactive: 0.853	inactive: 0.802	inactive: -0.586	inactive: -0.399	inactive: -0.333	inactive: -0.0679	inactive: 0.242	–	inactive: 0.141	inactive: -0.133	inactive: 0.41	–	inactive: -0.05	inactive: 0.528	–	inactive: -0.0346	inactive: 0.927	inactive: -0.131	–	–
GCM1, Q9NP62 (protein) MEPDDFDSEDKEILSWDINDVKLPQNVKKTDWFQEWPDSYAKHIYSSEDKNAQRHLSSWAMRNTNNHNSRILKKSCLGVVVCGRDCLAEEGRKIYLRPAICDKARQKQQRKRCPNCDGPLKLIPCRGHGGFPVTNFWRHDGRFIFFQSKGEHDHPKPETKLEAEARRAMKKVNTAPSSVSLSLKGSTETRSLPGETQSQGSLPLTWSFQEGVQLPGSYSGHLIANTPQQNSLNDCFSFSKSYGLGGITDLTDQTSTVDPMKLYEKRKLSSSRTYSSGDLLPPSASGVYSDHGDLQAWSKNAALGRNHLADNCYSNYPFPLTSWPCSFSPSQNSSEPFYQQLPLEPPAAKTGCPPLWPNPAGNLYEEKVHVDFNSYVQSPAYHSPQEDPFLFTYASHPHQQYSLPSKSSKWDFEEEMTYLGLDHCNNDMLLNLCPLR	inactive: -0.0347	inactive: 0.0437	–	inactive: 0.109	inactive: 0.0397	inactive: -0.257	–	inactive: 0.00161	–	–	inactive: -0.086	inactive: -0.135	inactive: -0.102	inactive: 0.0145	inactive: -0.084	inactive: -0.103	inactive: 0.0394	inactive: -0.185	inactive: 0.00777	inactive: -0.198	inactive: 0.0138	–	–	inactive: -0.0418	–
NANOS2, P60321 (protein) MQLPPFDMWKDYFNLSQVVWALIASRGQRLETQEIEEPSPGPPLGQDQGLGAPGANGGLGTLCNFCKHNGESRHVYSSHQLKTPDGVVVCPILRHYVCPVCGATGDQAHTLKYCPLNGGQQSLYRRSGRNSAGRRVKR	inactive: -0.056	inactive: -0.203	inactive: 0.0998	inactive: 0.0999	inactive: 0.0183	inactive: -0.11	–	inactive: -0.0693	inactive: -0.116	inactive: 0.00228	–	inactive: 0.0399	inactive: -0.0455	inactive: 0.0262	inactive: -0.0159	inactive: -0.0568	inactive: -0.0522	inactive: -0.0081	inactive: -0.196	–	inactive: 0.023	–	inactive: -0.0283	inactive: 0.11	inactive: -0.0733
CEP19, Q96LK0 (protein) MMCTAKKCGIRFQPPAIILIYESEIKGKIRQRIMPVRNFSKFSDCTRAAEQLKNNPRHKSYLEQVSLRQLEKLFSFLRGYLSGQSLAETMEQIQRETTIDPEEDLNKLDDKELAKRKSIMDELFEKNQKKKDDPNFVYDIEVEFPQDDQLQSCGWDTESADEF	inactive: 0.00235	–	inactive: -0.0648	–	inactive: -0.216	inactive: -0.191	–	–	inactive: 0.0521	–	–	inactive: -0.00333	–	–	–	–	–	–	inactive: -0.158	–	inactive: -0.137	–	–	–	–
